# Data reported in the supplement of paper PMC3334620.
# The full ranking holds about 33,000 sequences; the median of “E-score (-0.5 to 0.5)” is about -0.04, and the highest 2% start at about 0.36. The list shows a part of the results.
# Target: T1, Hmlalpha2 (UniProt P0CY09)
# T1 sequence: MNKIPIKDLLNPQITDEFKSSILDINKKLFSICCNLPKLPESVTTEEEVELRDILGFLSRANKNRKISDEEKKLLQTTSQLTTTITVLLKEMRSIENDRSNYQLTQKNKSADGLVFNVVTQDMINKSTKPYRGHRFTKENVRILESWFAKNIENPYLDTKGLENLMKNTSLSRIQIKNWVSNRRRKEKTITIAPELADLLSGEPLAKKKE
# Assay: PBM E-score (8-mer binding enrichment) (E-score (-0.5 to 0.5)); higher = stronger / more preferred TF binding; most listed sequences are background and not binding sites
# Details: protein concentration: 200 nM; construct: GST-full length
# Method in brief: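 GST-tagged yeast TFs (full-length or DNA-binding domain) were made by PURExpress in vitro transcription/translation and applied at about 100-200 nM to universal all-10-mer Agilent arrays. The arrays were made double-stranded by primer extension, on fresh or once-stripped slides. Bound protein was detected with fluorescent anti-GST, and scans were normalised with masliner. Each ungapped eight-base word, pooled with its reverse complement, received an E-score (modified Wilcoxon-Mann-Whitney statistic) from the Universal PBM Analysis Suite.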
row,Sequence,PBM E-score
1,AACCAATT,0.0231
2,AAGCTAGT,0.0295
3,TCAGTCCA,-0.168
4,CTTTGAAA,0.0406
5,GCTGTCCA,-0.0572
6,ATCAATAA,0.19
7,CGCTGCGC,-0.199
8,AAGTCGAA,-0.059
9,CGTCAAAC,0.0643
10,AACCGCTA,-0.169
11,GAGCATGA,-0.0304
12,GAAGTATA,-0.0316
13,CCTGCACC,-0.197
14,CACGGTAC,0.0827
15,CATTATCC,0.0855
16,AAAGATGG,-0.0792
17,GCGTTCTA,0.105
18,ATCGTTTC,-0.0304
19,AAAACTAG,0.133
20,GCAAAGCC,-0.325
21,CCAGAACA,0.0324
22,CGGGCGTA,-0.202
23,CGGTCTAA,0.00536
24,ACTAAGTG,0.0576
25,TCTTGACA,0.194

row,Sequence,PBM E-score
1,GAGGAGCA,-0.269
2,GTTCTGAA,0.213
3,CGGAGCGC,-0.229
4,CAGCACCA,-0.268
5,TAGGCTCA,-0.235
6,CGATGTTC,-0.0958
7,GGTCCGGA,-0.0474
8,TAATAATA,0.263
9,CTATACAA,0.183
10,GAACAAGA,0.139
11,GCGGCGCA,-0.203
12,ATTGGTGC,-0.156
13,CACAACTG,0.0134
14,CTTGGAAC,-0.0884
15,GGCAGCAC,-0.223
16,CAGATCCG,-0.074
17,AAATAGCC,-0.184
18,CCCCTTCA,-0.233
19,ACGTTAGT,0.166
20,ATCCAGAT,-0.217
21,ACGGATGA,-0.00893
22,TCAGCACA,0.136
23,GGCTAGGA,-0.206
24,GTTCGGAA,-0.0249
25,CCGATCGG,-0.154

row,Sequence,PBM E-score
1,AATCCGCC,-0.289
2,AAATGCTT,-0.0472
3,CTCCATGC,-0.189
4,GAGTCGGC,-0.289
5,AGGGTGTG,-0.0487
6,CTCTTTCA,-0.24
7,CGTCAGAA,-0.0845
8,ACCTTCGT,-0.207
9,AGTGGCGC,-0.295
10,GCGTACCA,0.073
11,GGCAGACC,-0.346
12,ACTAGCCT,-0.0684
13,ACACCCCT,-0.0328
14,ACCAGGAA,-0.148
15,AACCTGGT,-0.0464
16,ACCAACAG,-0.118
17,ACCCCGCC,-0.229
18,CCCGCCCA,-0.232
19,CAATCTGA,-0.03
20,CTTTGTCC,-0.0862
21,CAGCTCAC,-0.0549
22,AACGACGG,0.0595
23,CGCGAGTA,0.108
24,CCACATTA,0.0818
25,ACGGAGGA,-0.127

row,Sequence,PBM E-score
1,CCTCGGGC,-0.178
2,CATTGTGA,-0.0118
3,CTCCCCCA,-0.315
4,CCAGGGGC,-0.235
5,CTCACCTC,-0.0732
6,AGGCGCTC,-0.213
7,GATGACAA,0.207
8,AAACTGTG,0.131
9,GGCCTCAC,-0.204
10,ATATGCGA,0.131
11,ATCTGCTG,-0.0593
12,TAACTCAA,0.221
13,CCTTGCAG,-0.243
14,GCGAACAC,-0.166
15,ATAAGAAT,0.116
16,ATACGACA,0.241
17,ACCAGTAA,0.144
18,ACATTACA,0.449
19,AGCAACGC,0.197
20,AAAGGCCA,-0.188
21,CTGGAAGC,-0.254
22,AATGCACC,0.00311
23,CATAGAGC,-0.23
24,AAAGCTAT,0.101
25,AATTAACC,0.104

row,Sequence,PBM E-score
1,TGCTTGAA,0.128
2,ACCCGGTA,0.111
3,GAACGCCA,-0.0322
4,CCTCTTGC,-0.172
5,GAGGTTCC,-0.141
6,CTGGGTTA,0.184
7,CAAGTGAC,-0.0431
8,CTGAGGTC,-0.249
9,GATCCATA,-0.113
10,ACTGACTC,-0.204
11,CACTCCAG,-0.148
12,ACAGCAGC,0.0712
13,CAGCTGAG,-0.143
14,CGAGTCAG,-0.16
15,CTATACCA,0.0995
16,GGACGTAC,-0.0243
17,AGTAGTAT,0.11
18,AACTTGAT,0.187
19,GAAGTAAA,0.131
20,CTAGGCGC,-0.158
21,TCATGGGA,-0.091
22,AGTGAGAC,-0.237
23,CGCCAATA,0.0325
24,ACTTACCT,-0.0906
25,CGACGGCG,-0.198

row,Sequence,PBM E-score
1,AATGCCTA,-0.0868
2,AACGACAT,0.312
3,AAAAAGTC,-0.0155
4,GTCCAAAA,0.0377
5,AATCGTGC,0.151
6,CAACGAGC,-0.0885
7,AAGGCTGC,-0.194
8,CTTTCAGA,-0.0843
9,TGCAGACA,0.0705
10,TGAATCCA,-0.139
11,CTGAACCA,0.0213
12,GACCATGA,-0.132
13,ACCAGACA,0.0989
14,CTAGTCGA,-0.0801
15,AAGACCAA,-0.0417
16,AAGGGGCG,-0.361
17,GCGCTTCA,-0.216
18,GAGACTGC,-0.207
19,CCCTGCGC,-0.296
20,ACGTTAAA,0.362
21,AAACTATG,0.097
22,ACTGATTA,0.187
23,TCGTGTCA,0.395
24,CGTGCTTC,0.0983
25,CGTTAAAG,0.251

row,Sequence,PBM E-score
1,CCACGTAG,-0.0349
2,ATCACCCC,-0.191
3,AACTTATC,-0.0978
4,GCGCGTCC,-0.115
5,CTAAAAAC,0.0815
6,CCTAGCCG,-0.244
7,AGCCCAGA,-0.185
8,GAGGTTCA,-0.0376
9,ACAACAGA,0.193
10,ATAGGCAG,-0.0885
11,CGTACTTC,0.0387
12,CGCACCTA,-0.00929
13,TACCCGAA,-0.0229
14,ACATATCG,0.126
15,CAGCGGCC,-0.287
16,AAACCGAT,-0.0211
17,CGTTATAG,0.175
18,ATGTGGTG,0.112
19,GCGGCTCA,-0.179
20,GCACTGCC,-0.226
21,TGAGAAAA,-0.0832
22,CATTTCTC,-0.0284
